Measurements as given in PubChem BioAssay (NCATS).
Inconclusive results, whose numbers are uncertain, are shown with a selection of clear calls. No potency is given beside an inconclusive call; the fits are too rough. Activity calls are given as the source filed them. Calls follow the shape of the dose curve; as a rule, active = well fitted curve in the direction sought with a large enough effect; inconclusive = small, poorly fitted or top-dose-only effect, or another doubt; inactive = no such curve, though single readings can be large; an effect the other way counts as inactive or inconclusive.

Experiments:
[1] = biological target: Rap guanine nucleotide exchange factor 3 (Homo sapiens) (UniProt O95398); assay: Confirmatory qHTS for antagonist of cAMP-regulated guanine nucleotide exchange factor 3 (EPAC1) (AID 1645880); conditions: EPAC1 Rap1B-BODIPY-GDP exchange, fluorescence; activity, negative = inhibition: at 115 µM (top of the series); also: nearly all actives have a fitted effect of over 55% in size;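 as to activity, negative = inhibition: plate controls were DMSO only for no effect and full effect of the ATA control for full effect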
UniProt O95398, sequence (O95398 whole entry, looked up): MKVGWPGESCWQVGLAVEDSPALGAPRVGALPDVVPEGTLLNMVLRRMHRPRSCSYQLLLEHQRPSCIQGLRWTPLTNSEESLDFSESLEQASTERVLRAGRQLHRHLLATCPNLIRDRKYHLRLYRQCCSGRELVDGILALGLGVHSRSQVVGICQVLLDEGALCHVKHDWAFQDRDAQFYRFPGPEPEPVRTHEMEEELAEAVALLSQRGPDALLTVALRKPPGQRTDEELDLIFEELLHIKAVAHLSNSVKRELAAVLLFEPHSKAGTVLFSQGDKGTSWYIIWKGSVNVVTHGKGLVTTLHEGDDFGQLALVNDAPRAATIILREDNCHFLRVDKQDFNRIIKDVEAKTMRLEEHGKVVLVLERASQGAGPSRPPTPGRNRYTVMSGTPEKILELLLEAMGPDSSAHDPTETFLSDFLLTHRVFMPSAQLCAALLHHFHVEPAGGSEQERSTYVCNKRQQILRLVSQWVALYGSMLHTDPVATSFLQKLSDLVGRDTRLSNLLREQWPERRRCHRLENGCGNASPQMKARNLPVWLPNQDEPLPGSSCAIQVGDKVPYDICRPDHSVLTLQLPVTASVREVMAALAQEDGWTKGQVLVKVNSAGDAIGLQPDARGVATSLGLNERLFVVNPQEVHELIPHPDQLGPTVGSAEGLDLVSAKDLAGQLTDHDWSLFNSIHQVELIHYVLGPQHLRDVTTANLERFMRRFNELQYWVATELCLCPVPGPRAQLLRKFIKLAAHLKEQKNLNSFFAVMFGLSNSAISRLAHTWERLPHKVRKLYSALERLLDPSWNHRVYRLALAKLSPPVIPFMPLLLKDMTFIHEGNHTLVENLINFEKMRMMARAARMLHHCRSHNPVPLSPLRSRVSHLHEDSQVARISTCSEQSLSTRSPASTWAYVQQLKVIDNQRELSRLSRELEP
Procedure, shortened: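 Released BODIPY-GDP fluoresces less than Rap1-bound BODIPY-GDP; the signal is followed at 480/540 nm at 5-min intervals over 30 min, after 5 min at room temperature. Reactions contain 100 nM EPAC1, 250 nM RAP1B-BODIPY-GDP and 50 uM GDP; results are normalized to ATA and DMSO.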

[2] = biological target: Rap guanine nucleotide exchange factor 4 (Homo sapiens) (UniProt Q8WZA2); assay: Confirmatory qHTS for antagonist of cAMP-regulated guanine nucleotide exchange factor 4 (EPAC2) (AID 1645885); conditions: activity change, negative = inhibition: at 12.7 µM (top of the series) unless noted; also: nearly all actives have a fitted effect of over 25% in size; as to activity change, negative = inhibition: % is scaled to controls: 0 for no effect and ±100 for the full control effect
UniProt Q8WZA2, sequence (Q8WZA2 whole entry, looked up): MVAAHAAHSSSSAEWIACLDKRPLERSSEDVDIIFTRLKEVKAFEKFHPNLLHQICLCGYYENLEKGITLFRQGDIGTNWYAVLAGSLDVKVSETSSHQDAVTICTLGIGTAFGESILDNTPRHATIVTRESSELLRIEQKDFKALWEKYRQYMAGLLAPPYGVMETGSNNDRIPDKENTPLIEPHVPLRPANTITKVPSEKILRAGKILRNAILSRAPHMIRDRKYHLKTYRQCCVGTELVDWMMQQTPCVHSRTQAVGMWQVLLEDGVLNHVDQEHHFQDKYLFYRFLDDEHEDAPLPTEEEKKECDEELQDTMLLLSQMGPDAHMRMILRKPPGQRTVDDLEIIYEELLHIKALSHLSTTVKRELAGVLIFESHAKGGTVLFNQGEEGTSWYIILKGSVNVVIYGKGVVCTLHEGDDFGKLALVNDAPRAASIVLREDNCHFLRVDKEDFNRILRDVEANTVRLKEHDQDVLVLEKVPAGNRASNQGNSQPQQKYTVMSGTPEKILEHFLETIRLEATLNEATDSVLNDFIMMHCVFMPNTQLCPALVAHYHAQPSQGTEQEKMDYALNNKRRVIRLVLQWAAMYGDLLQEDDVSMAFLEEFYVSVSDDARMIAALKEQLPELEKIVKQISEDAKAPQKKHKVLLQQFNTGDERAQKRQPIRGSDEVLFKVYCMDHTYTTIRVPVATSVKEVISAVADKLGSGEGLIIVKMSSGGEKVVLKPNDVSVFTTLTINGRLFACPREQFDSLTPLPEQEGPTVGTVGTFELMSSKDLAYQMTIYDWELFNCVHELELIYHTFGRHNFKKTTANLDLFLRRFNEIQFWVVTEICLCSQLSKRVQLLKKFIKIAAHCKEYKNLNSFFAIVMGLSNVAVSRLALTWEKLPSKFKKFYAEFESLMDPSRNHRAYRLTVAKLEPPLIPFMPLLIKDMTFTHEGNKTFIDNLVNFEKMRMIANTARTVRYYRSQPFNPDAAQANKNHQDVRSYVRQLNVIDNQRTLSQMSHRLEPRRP

[3] = biological target: Rap guanine nucleotide exchange factor 3 (Homo sapiens) (UniProt O95398); assay: Counterscreen qHTS for agonist of cAMP-regulated guanine nucleotide exchange factor 3 (EPAC1) (AID 1645889); conditions: EPAC1 Rap1B-BODIPY-GDP exchange, fluorescence; activation: at 154 µM (top of the series) unless noted; also: nearly all actives have a fitted effect of over 40% in size; as to activation: % of control where 0% means no effect
Procedure, shortened: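 Rap1B–BODIPY-GDP (250 nM) with 50 uM GDP; compounds pin-transferred to 9.74 nM–152 uM final (activator) or from 7.32 nM upwards (inhibitor). Fluorescence Ex/Em 480/540 nm read at 5 and 30 min, then after adding cAMP or buffer, at room temperature.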
Potency is read from the fitted curve at half-maximal effect; tags tell the direction and shape of the fitted curve.

Row | Structure (SMILES) | Potency [1] | Potency [2] | activation [3] | Potency [3] | outcome [2]
1 | Cc1ccc(S(=O)(=O)N2[C@@H](c3ccc(C(C)(C)C)cc3)C(C(=O)O)=CC[C@H]2c2ccc(C(C)C)cc2)cc1 | active: 19 µM | inactive | inconclusive: -35% [activator] |  | 
2 | Cc1cc(C)c(S(=O)(=O)c2ccccc2)c(OC(=O)c2c(F)cccc2F)n1 | inconclusive [inhibitor, partial curve] | inactive |  | inconclusive [activator, full curve, poor fit] | 
3 | C[C@H](CO)N1C[C@H](C)[C@@H](CN(C)C)Oc2c(NS(=O)(=O)c3ccccc3)cccc2C1=O | inactive | inconclusive [inhibitor, full curve, poor fit] |  | inactive | 
4 | N#Cc1c(-c2ccccc2)nc(SCc2cccc(Cl)c2)[nH]c1=O | active: 67.5 µM | active: 37.9 µM |  | inactive | 
5 | O=C(O)c1cc(N/N=C/C=C/c2ccccc2)ccc1Cl | inconclusive [inhibitor, partial curve] | inconclusive [inhibitor, partial curve, poor fit] |  | inactive | 
6 | COc1cc2c(c(OC)c1OC)C(c1ccccc1C)CC(=O)O2 (centres undefined) | inconclusive [inhibitor, partial curve, poor fit] | inconclusive [inhibitor, full curve] |  | inactive | 
7 | CCCCCCc1cc2cc(-c3nnc(-c4ccc(C)cc4)o3)c(=O)oc2cc1O | inactive | inconclusive [inhibitor, partial curve, poor fit] |  | inconclusive [activator, full curve, poor fit] | 
8 | COc1ccc(Cl)cc1NC(=O)CN(C)C(=O)c1cc2c(s1)CCC(C)C2 (centres undefined) | inactive | inactive |  | inconclusive [activator, partial curve, poor fit] | 
9 | CC(=O)Nc1ccc(S(=O)(=O)/N=C2/NC(=O)/C(=C\c3ccco3)S2)cc1 | inconclusive [inhibitor, full curve] | active: 84.9 µM |  | inactive | 
10 | Cc1cc2c(cc1C)C(c1ccccc1OC(C)C)CC(=O)N2 (centres undefined) | inconclusive [inhibitor, partial curve, poor fit] | active: 33.8 µM |  | inactive | 
11 | CCc1ccc(-c2cc(C)no2)cc1S(=O)(=O)N1CCC(C)CC1 | inconclusive [inhibitor, partial curve, poor fit] | inconclusive [inhibitor, full curve] |  | inconclusive [activator, partial curve] | 
12 | Cc1ccc(C)c(N2CCN(C(=O)CCCn3c(=O)c4cccn4c4cccnc43)CC2)c1 | inactive | inconclusive [inhibitor, single point] |  | active: 0.0089 µM | 
13 | Cc1cccc(-c2nc3c(cnn3-c3ccccc3)c(=O)n2-c2cccc(Cl)c2)c1 | inconclusive [inhibitor, partial curve, poor fit] |  |  | inconclusive [activator, partial curve, poor fit] | inactive [at 12.7 µM]
14 | O=C1CC2(CCCCC2)Oc2ccc(F)cc21 | inactive | inconclusive [inhibitor, partial curve] | inconclusive: 36.6% [activator] |  | 
15 | O=C(NCCc1ccccc1)c1cccc(NC(=O)c2ccccc2)c1 | inconclusive [inhibitor, partial curve, poor fit] | inconclusive [inhibitor, full curve, poor fit] |  | inactive | 
16 | CC(=O)C1C(=O)C=C(c2cccs2)CC1c1ccccc1 (centres undefined) | inactive | inconclusive [inhibitor, single point] |  | inconclusive [activator, full curve, poor fit] | 
17 | Cc1cc(C)n2[nH]c(=O)c(N=Nc3ccc(S(N)(=O)=O)cc3)c2n1 | inactive | active: 84.9 µM |  | inactive | 
18 | COc1ccc(-c2nc(CCNS(=O)(=O)c3ccc4c(c3)OCCO4)cs2)cc1 | inconclusive [inhibitor, partial curve, poor fit] | inconclusive [inhibitor, partial curve, poor fit] |  | inactive | 
19 | CC(C)c1ccc(/C=C/C(=O)Nc2ccc(CN3CCOCC3)cc2)cc1 | inconclusive [inhibitor, partial curve, poor fit] | active: 95.3 µM |  | inconclusive [activator, partial curve, poor fit] | 
20 | O=c1cc(-c2ccccc2)nc2c(-c3ccccc3)c(C(F)(F)F)[nH]n12 | active: 42.6 µM | active: 16.9 µM |  | inactive | 
21 | CC(C)C(CCNC(=O)CC(Cc1ccccc1)c1ccco1)c1ccco1 (centres undefined) | inconclusive [inhibitor, partial curve, poor fit] | inactive |  | inconclusive [activator, full curve, poor fit] | 
22 | CCCOC(=O)c1c(NC(=O)C2C3C=CC(C3)C2C(=O)O)sc2c1CCC(C)C2 (centres undefined) | inconclusive [inhibitor, partial curve, poor fit] | inactive | inactive: 40.1% [at 30.8 µM] |  | 
23 | COc1ccc2cc(/C=C3\SC(=S)NC3=O)c(N3CCOCC3)nc2c1 | active: 20 µM | inconclusive [inhibitor, single point] |  | inconclusive [activator, full curve, poor fit] | 
